Measured values: ChEMBL document CHEMBL4888484, “Replenishing the malaria drug discovery pipeline: Screening and hit evaluation of the MMV Hit Generation Library 1 (HGL1) against asexual blood stage Plasmodium falciparum ,using a nano luciferase reporter read-out” (2022)
Among all 150,000 compounds or so, about 540 (0.36%) showed an effect of 50% or more. Some of the results follow.

System: Plasmodium falciparum
Assay: Primary screen in NF54 nanoGlo assay, in single point, at 2uM, 72h; a lower Z score goes with more inhibition
Format: functional, Erythrocyte
Conditions: timepoint 72 hour

Structure (SMILES) | % Inhibition [%] | Z score
Fc1ccc(-c2ccc(Cn3ccnc3)cn2)c(Cl)c1 | -7 | 1
C[C@@H](NC(=O)Nc1ccn(Cc2ccncc2)n1)C1CC1 | -7 | 1.44
O=C(C1CCC1)N1CCC(CCCc2ccccc2)(C(=O)O)CC1 | -8 | 0.77
Cc1ccccc1OCC(=O)Nc1cc(N)cc(Oc2ccccc2)c1 | -1 | 0.22
O=C(c1cc2n(n1)CCCO2)N1CC[C@H](Oc2cccnn2)C1 | -7 | 0.8
Cc1[nH]c2ccccc2c1C1CCN(C(=O)C2CC3CCC2O3)CC1 (stereo not given) | 8 | -1.24
COc1ccc(-c2cc(C(=O)N3CCN(c4ccc(F)cc4)CC3)on2)cc1OC | -1 | 0.09
CCOC(=O)c1c(S(=O)(=O)N2CCC[C@H](C(=O)Nc3ccccc3OC)C2)c(C)n(CC)c1C | 8 | -1.6
CCOC(Cn1cc(C(=O)NCCc2cccc(Cl)c2)nn1)OCC | -26 | 3.09
CCCCn1c(N)c(N(C(=O)Cc2c(Cl)cccc2Cl)C2CCCC2)c(=O)[nH]c1=O | -1 | 0.1
Cc1nc(C(=O)NC2(c3noc([C@H]4CCOC4)n3)CCCCCC2)c[nH]1 | -9 | 0.88
CCCC1CCC(OC(=O)c2ccc(C(=O)OC3CCC(CCC)CC3)nc2)CC1 (stereo not given) | 74 | -10.02
CCCCCc1ccc(C(=O)N2CCCN(c3nc4ccccc4nc3-c3ccccc3)CC2)cc1 | -7 | 0.67
COc1cccc(CN2C[C@@H]3Oc4ncccc4C(=O)N(C)[C@@H]3C2)c1 | 0 | 0
COc1nc2c(cc1CNc1cc(C(C)C)nc(C)n1)C(=O)N(C1CCCC1)C2 | -13 | 1.78
NC(=O)[C@@H]1COCCN1Cc1csc(-c2ccccn2)n1 | -12 | 2.14
CCn1ncnc1CN1CC[C@H](CNC(=O)C2CCCCC2)C1 | -14 | 1.82
O=C(NCc1nccnc1-c1ccsc1)c1cscn1 | 7 | -0.87
C[C@H]1CCC(C)(C)N1C(=O)c1ccnc(N(C)C)c1 | 29 | -3.31
Cc1cccc2ncnc(N(C)C3CC[S+]([O-])CC3)c12 (stereo not given) | 3 | -0.52
O=C(NCc1nc(-c2ccco2)n[nH]1)c1c[nH]nc1-c1ccccc1 | -16 | 3.04
Cc1ccc(C(=O)c2ccccc2C(=O)NCCN2CCOCC2)cc1C | -6 | 0.86

Structure (SMILES) | % Inhibition [%] | Z score
O=C(Cc1n[nH]c(=O)c2ccccc12)Nc1ccc(OC2CCCC2)c(Cl)c1 | -4 | 0.56
CC(=O)Nc1ccc([C@H]2NC(=O)c3ccccc3O2)cc1 | -1 | 0.16
C[C@@H](CS(C)(=O)=O)NC(=O)C1CCCCCC1 | -9 | 1.18
CCCN1C[C@@H](CNC(=O)c2nc(C)[nH]c2C)CC1=O | 4 | -0.52
O=S1(=O)CCN(Cc2ccccn2)CC1 | 30 | -3.93
Cc1nc(C(C)C)oc1C(=O)N1CCOCc2ccccc21 | 8 | -1.01
c1ccc(C(OCCNC2=NCCN2)c2ccccc2)cc1 | -28 | 3.26
C[C@@H]1CN(C(=O)c2coc(COc3cccc(F)c3)n2)C[C@H](C)O1 | -8 | 1.06
COc1cc(NC(=O)c2ccc(-c3ccccc3)cc2)c(OC)cc1NC(=O)c1ccccc1 | 6 | -0.73
Cc1onc(C2CC2)c1C(=O)N1C[C@@H](C)N(CCO)[C@@H](C)C1 | 3 | -0.38
CCc1[nH]ccc1C(=O)N[C@H](c1cccs1)C1(CO)CCC1 | -14 | 1.73
COCCOc1ccc(C(=O)N[C@@H]2CN(C(=O)Nc3ccccc3C(=O)OC)CCC[C@H]2O)cc1 | 24 | -2.67
CC(C)[C@@H](C(=O)N1CC2(CNC(=O)O2)C1)c1cccc(Cl)c1 | -9 | 1.17
O=C1CN(c2ccc(CNC(=O)c3ccc(Br)cc3)cc2)CCN1 | -8 | 1.5
O=C(O)Cc1ccccc1NC(=O)c1cc2c(s1)CCOC2 | -6 | 0.99
CCC1=NO[C@@H](CN(C)CCc2ccccn2)C1 | -1 | 0.12
CN(c1ccc(Cl)c(C(=O)Nc2cccnc2)c1)S(C)(=O)=O | -2 | 0.31
C[C@]1(F)CCCN(c2nnc(Cc3ccccc3)o2)C1 | -4 | 0.72
Cc1ccnc(N2CC[C@H]3[C@H](CCC(=O)N3CCCn3ccnc3)C2)n1 | 3 | -0.49
O[C@H](COc1ccccc1-c1ccc(Cl)c(F)c1)CN1CCOCC1 | -10 | 1.67
CN(C)c1ccccc1NC(=O)N[C@H]1CCS(=O)(=O)C1 | -11 | 1.66
O=C(NCCOc1cccnc1)c1ncccc1Br | -19 | 1.69

Structure (SMILES) | % Inhibition [%] | Z score
C[C@@H](CCc1ccccc1)NC(=O)c1cnn2c(-c3ccc(Cl)s3)ccnc12 | -1 | 0.13
CCc1nnc(NCC2(N(C)C)CCCC2)s1 | -4 | 0.57
O=C(O)c1ccc(NC(=O)c2cccc(N3C(=O)C4C5CCC(C5)C4C3=O)c2)cc1 (stereo not given) | 5 | -0.98
CCO[C@H]1CN(C)C[C@@H]1NC1Cc2ccccc2C1 | 11 | -1.44
Cc1ccc(-c2nc(NC(=O)c3ccccc3F)sc2NC(=O)c2ccco2)cc1 | -19 | 2.6
CN(C)c1nc(N2CCC(c3cc[nH]n3)CC2)ncc1F | -10 | 1.31
Nc1ncc(C(=O)NC[C@H]2CC23CCCCC3)s1 | -6 | 1.21
CC(C)Oc1ccc(NS(=O)(=O)CCCC(F)(F)F)c(F)c1 | -17 | 1.74
CCc1ocnc1C(=O)NC1CCN(c2nccn2C)CC1 | 11 | -1.43
COc1cccc(C(=O)OCC(=O)Nc2c(C#N)c(C)c(C)n2-c2ccccc2)c1 | -9 | 1.1
NC(=O)C1CCCC(NC(=O)CCC2CCCO2)C1 (stereo not given) | -7 | 0.79
O=C1NCCN1CCn1ccnc1-c1ccncc1 | -13 | 1.54
Cc1cc2c(cc1S(=O)(=O)Nc1cccc(C#N)c1)OCC(=O)N2Cc1noc(C2CC2)n1 | 2 | -0.25
CCc1sc(NCc2nc(C)cc(C)n2)nc1C | 3 | -0.42
Cc1ncc(CN2CCC(NC(=O)c3cn[nH]c3C)C(C)C2)s1 (stereo not given) | 1 | -0.1
Cc1nnc(CN(C)C(=O)[C@@H]2NCCOc3ccccc32)n1C | -3 | 0.51
c1sc(C2CC2)nc1Cn1cnc2c1CCNC21CCOCC1 | 1 | -0.24
O=C(NC1CCC(C(=O)N2CCCO2)CC1)C1CCCC1 (stereo not given) | -14 | 1.48
CCOc1cc(CN2CCC3(CC2)CNC(=O)C3)cc(Cl)c1O | 1 | -0.2
O=C(COc1ccccc1F)NC(C1CC1)C1CC1 | -2 | 0.22
N#Cc1c(N2CCCCC2)ncc2c(=O)c3ccccc3[nH]c12 | 33 | -0.75
O=C(NCCCN1CCCC1=O)c1ccc2ccccc2n1 | -18 | 1.49

Structure (SMILES) | % Inhibition [%] | Z score
Cc1ccccc1CNC[C@H]1O[C@@H]2C[C@H](CC(=O)NCc3ccc(F)cc3)O[C@@H]2[C@@H]1O | -8 | 1.38
Cc1cccc(NC(=O)CCc2nc(-c3ccc(S(=O)(=O)N4CCCC4)cc3)no2)c1C | 0 | 0.05
NC(=O)CCn1cc(CN2CCC[C@H](Cc3cccnc3)C2)c2ccccc21 | 8 | -1.09
O=C(Nc1nnc(CCCc2ccccc2)s1)c1ccc2c(c1)OCO2 | -10 | 1.91
CCCNC(=O)c1c(C(F)(F)F)nn(C2CCN(C(C)C)CC2)c1C | -4 | 0.76
CC(F)(F)CC(=O)N1CCCC2(CC2)C1 | 4 | -0.47
COc1ccc(Cl)cc1NC(=O)CN(CC(=O)Nc1ccccc1)Cc1ccco1 | -9 | 1.64
C[C@@H]1CN(CCCCO)CCN1C(=O)OC(C)(C)C | -1 | 0.08
Cc1cc2c(cc1S(=O)(=O)N(C)CC(=O)NC1CCCCCCC1)OCC(=O)N2 | -4 | 0.44
CN1c2cccnc2CN(CC2CCCCC2)CC[C@H]1CO | 28 | -3.24
CC1CN(C(=O)C2CC2c2cccc(F)c2F)CCN1 (stereo not given) | 0 | -0.05
COc1ccc([C@@H]2CCCN2C(=O)c2nc(-c3ccccc3)n(-c3ccccc3)n2)cc1OC | 3 | -0.64
COc1cccc(CN(C)Cc2cc(C)[nH]n2)c1OC[C@@H](O)CN1CCOCC1 | -2 | 0.44
CCCCN(CC(=O)N1CCCN(c2ccc(-c3ccc(OC)c(OC)c3)nn2)CC1)C(=O)c1cccc(F)c1 | -6 | 0.97
CCc1nnc(NCc2cc(COC)cs2)o1 | -14 | 1.34
C[C@H](NCc1nnnn1CC(F)(F)F)c1cccc(C2CC2)c1 | 2 | -0.2
Cc1nn(-c2ccc3nncn3n2)c(C)c1CCC(=O)Nc1ccc(F)cc1 | -16 | 1.96
CC(=O)N1CCC[C@H](NC(=O)c2[nH]cnc2C)C1 | -9 | 1.73
CC1(CN2CCOCC2)CCN(CC(=O)N2CCc3sccc3C2)CC1 | 35 | -4.71
